Assay results from the supplement of paper PMC3334620.
Whole data set: some 33,000 sequences, median “E-score (-0.5 to 0.5)” near -0.021, cut for the highest 2% near 0.32. This is one part of the list.

target: T1, Zap1 (UniProt P47043); assay: PBM E-score (8-mer binding enrichment) (E-score (-0.5 to 0.5)); higher = stronger / more preferred TF binding; most listed sequences are background and not binding sites; conditions: protein concentration: 200 nM; construct: GST-full length
T1 sequence: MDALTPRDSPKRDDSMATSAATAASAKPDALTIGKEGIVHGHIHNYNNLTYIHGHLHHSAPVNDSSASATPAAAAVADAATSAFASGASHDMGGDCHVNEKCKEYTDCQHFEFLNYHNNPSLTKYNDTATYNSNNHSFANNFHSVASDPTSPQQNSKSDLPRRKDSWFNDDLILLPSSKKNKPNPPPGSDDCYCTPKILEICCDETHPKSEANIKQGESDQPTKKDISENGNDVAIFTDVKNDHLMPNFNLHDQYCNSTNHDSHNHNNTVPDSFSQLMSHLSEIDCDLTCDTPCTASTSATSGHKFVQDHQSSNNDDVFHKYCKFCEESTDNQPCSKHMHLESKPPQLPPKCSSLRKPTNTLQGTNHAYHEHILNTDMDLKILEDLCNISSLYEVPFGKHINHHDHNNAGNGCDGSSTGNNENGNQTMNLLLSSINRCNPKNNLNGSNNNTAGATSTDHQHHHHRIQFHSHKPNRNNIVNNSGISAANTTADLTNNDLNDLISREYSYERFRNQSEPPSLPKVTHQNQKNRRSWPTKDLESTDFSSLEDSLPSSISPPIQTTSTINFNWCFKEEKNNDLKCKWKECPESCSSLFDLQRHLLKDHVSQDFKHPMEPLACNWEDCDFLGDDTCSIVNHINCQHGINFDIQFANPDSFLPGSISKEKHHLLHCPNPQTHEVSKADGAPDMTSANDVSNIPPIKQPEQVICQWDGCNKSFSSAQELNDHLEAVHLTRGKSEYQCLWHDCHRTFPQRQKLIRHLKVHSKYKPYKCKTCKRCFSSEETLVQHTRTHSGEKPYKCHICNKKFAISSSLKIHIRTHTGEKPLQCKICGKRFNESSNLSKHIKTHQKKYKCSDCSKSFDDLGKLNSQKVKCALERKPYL
Method in brief: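 E-scores (a modified Wilcoxon-Mann-Whitney statistic) were assigned by the Universal PBM Analysis Suite to every ungapped eight-base word pooled with its reverse complement. The input came from universal all-10-mer Agilent arrays made double-stranded by primer extension and probed with GST-tagged yeast transcription factors at about 100-200 nM. Fluorescent anti-GST detected bound protein, and masliner normalised the scans.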

Sequence | PBM E-score
ACACTTTC | -0.104
ATACAAAA | 0.28
ACAAAGAC | 0.217
GCTGTGTA | -0.108
CTCTAAGC | -0.0361
CCCCCTCA | -0.406
CATAGGGA | -0.2
CCGAATAG | 0.0614
CATCAGTC | -0.338
ACCTAGGC | -0.26
ACCCCAAC | 0.302
ACGCAGTG | -0.166
ACGTGGAT | -0.0971
GAACAAAA | 0.218
CACTATCA | -0.0362
TCTTTGAA | -0.005
CCCACATA | -0.0573
ATTTCTAG | 0.242
ACCCAGGA | 0.114
CAGTTCAA | -0.12
AACCAAAA | 0.364
CGCTCCGC | -0.332

Sequence | PBM E-score
CCAGCACA | -0.00996
GTAGTGAA | 0.105
TAGGCTAA | -0.0546
CACGCGAA | -0.152
CACAAGTG | -0.211
AATCTGCA | -0.0649
ATCCTTTA | 0.092
ATTTATGA | 0.107
GTGTATGA | -0.0526
ATGATCGG | -0.0148
ACGGTTAA | 0.258
AGAGGTAT | 0.311
AAATTATC | 0.215
CGTTTGAC | -0.0377
GTGTAGGA | -0.0469
AGATTGAC | -0.0527
GACGTAAC | 0.195
AGCAGAAG | -0.196
ACAGGCGC | -0.335
GAAGGATA | -0.106
GAGCGCAA | -0.0826
TCGTATCA | -0.0428

Sequence | PBM E-score
GCGGGTTA | 0.366
CGAGTCAC | 0.0483
CCGCGAGA | -0.166
AGTCTTAA | -0.226
CCATAACA | 0.19
CCCAGAAC | 0.221
AGCGCGAC | 0.0568
ATTTCTAA | -0.0928
ACCGCTCG | 0.0486
CTAGCTAA | -0.0794
GTTGAGTA | -0.02
ATTGGGTC | 0.109
AATCCTAC | -0.161
AGTCCAGC | -0.158
CATCAAGC | -0.0639
ATTCGGCA | -0.17
AACATTCC | -0.289
CGATTCCA | -0.193
GGCCGCCC | -0.0965
AAGCGTCA | -0.00741
GGTTAACC | 0.427
AACCTTTG | 0.377

Sequence | PBM E-score
ATGAAACC | 0.151
CGAGGTTC | 0.22
AATTGTGA | 0.0817
CGGAGTTC | 0.0089
AGTCCCAA | 0.0837
TGTGAGAA | -0.0687
GAGAGTCA | -0.0419
TCCACCCA | -0.233
ACGGGATC | -0.164
TAAGTCTA | -0.121
GCACTGAA | -0.136
ATGTAGTA | 0.155
ATCAGCTC | -0.0782
CGGCCCCC | -0.119
TGTTGAAA | 0.114
CTTTAGGA | -0.00183
CTAACCCA | 0.326
GGGATTTA | -0.00348
AAGCTGTG | -0.125
ATGAGCTA | -0.0368
